The results in this text go back to the RNAGym collection of RNA variant scans (doi:10.1073/pnas.2313332121).

First the molecules themselves.
B1: TPR 5TU (parent)
chain: GGAUCUUCUCGAUCUAACAAAAAAGACAAAUCUGCCACAAAGCUUGAGAGCAUCUUCGGAUGCAGAGGCGGCAGCCUUCGGUGGCGCGAUAGCGCCAACGUUCUCAACUAUGACACGCAAAACGCGUGCUCCGUUGAAUGGAGUUUAUCAUG

Variants at the background level are over-represented here.

The series covers variants of B1. As to the kind of experiment: polymerase ribozyme fitness, log enrichment relative to wild type (log ratio); higher = more active; in vitro selection for triplet polymerase activity. The procedure, abridged: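 Fitness is a logarithmic measure of how a genotype enriched relative to the wild type, with replicate averages weighted by inverse variance. The logarithm uses base 2, and enrichment came from Illumina sequencing of input and output libraries. Those libraries were PCR-built, transcribed mutants of each subunit of a heterodimeric triplet polymerase ribozyme, passed through one triplicate in vitro selection round that included frozen incubation at −7 °C, gel excision of extended constructs and streptavidin-bead capture. Genotypes were kept only if they had ≥10 input reads and ≥1 read per output.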
Take GGAUCUUCUCGAUCUAACAAAAAAGCCAAAUCUGCCACAAAGCUUGAGAGCAUCUUCGGAUGCAGAGGCGGCAGCCUUCGGUUGCGCGAUAGCGCCAUCGGUCUCAACUAUGACACGCAAAACGCGUGCUCCGUUUAAUGGAGUUUAUCAUG: the “polymerase ribozyme fitness (log ratio)” value is no more than -4.2. GGAUCUUCUCGAUCUAACAAAAAAGCCAAAUCUGCCACAAAGCUUGAGAGCAUCUUCGGAUGCAGAGGCGGCAGCCUUCGGUGCCGCGAUAGCGCCAACGUUCUCAAGUAUGACACGCAAAACGCGUGCUCCAUUGAAUGGAGUUUAUCAUG: the “polymerase ribozyme fitness (log ratio)” value was no more than -4.2. Under GGAUCUUCUCGAUCUAACAAAAAAGCCAAAUCUGCCACAAAGCUUGAGAGCAUCUUCGGAAGCGGAGGCGGCAGCCUACGGUGGCGCGAUAGCGCCAACGUUCUCAACUAUGACACGCAUAACGCGUGCUCCGUUGAAUGGAGUUUAUCAUG stands no more than -4.2; under GGAUCUUCUCGAUCUAACAAAAAAGCCAAAUCUGCCACAAAGCUUGAGAGCAUCUACGGAUGCAGAGGCGGCAGCAGUCGGUGGCGGGAUAGCGCCAACGUUCUCAACUAUGACACGCAAAACGCGUGCUCGGUUGAAUGGAGUUUAUCAUG, no more than -4.2; under GGAUCUUCUCGAUCUAACAAAAAAGCCAAAUCUGCCACAAAGCUUGAGAGCAUCUACGGUUGCAGAGGCGGCAGCCUUCGGGGGCGCGAUAGCGCCAACGUUCUCAACUAUGACACGCAAAACGCGUGCUCCGUUGAAUGGAGUUUAUCAUG, -2.45. The value for GGAUCUUCUCGAUCUAACAAAAAAGCCAAAUCUGCCACAAAGCUUGAGAGCAUCUUCGGAUGCAGAGGCGGCAGCCUUCGGAGGCGCGAUAGCGACAACGUUCUCAACUAUGACACGCAAAACGCGUGCUCCGUUGAAUGGAGUUUAUCAUG was -2; that for GGAUCUUCUCGAUCUAACAAAAAAGGCACAUCUGCCACAAAGGUUGAGAGCAUCUUCGGAUGCAGAGGCGGCAGCCUUCGGUGGCGCGAUAGCGCGAACGUUCUCAACUAUGACACGCAAAACGCGUGCUCCGUUGAAUGGAGAUUAUCAUG was no more than -4.2; that for GGAUCUUCUCGAUCUAACAAAAAAGCCAAAUCUGCCACAAAGCUUGAGAGCAUCUUCGGAUGCAGAGGCGGCAGCCUUCGGUGGCGCGAUAACGCCAACGUUUUCGACUAUGACACGCAAAACGCGUGCUCCGUUGAAUGCAGUCUAUCAUG was no more than -4.2. Regarding GGAUCUUCUCGAUCUAACAAAAAAGGCAAAUCUGCCACAGAGAUUGAGAGCAACUUCGGAUGCAGAUGGGGCAGCCUUCGGUGGCGCGAUAGCGCCAACGUUCUCAACUAUGACUCGCAAGACGCGUGCUCCGUUGAAUGGAGUUCCUCAUG, the “polymerase ribozyme fitness (log ratio)” value was no more than -4.2.

GGAUCUUCUCGAUCUAACAAAAAAGCCAAAACUGCCACAAAGCUUGAGGGCCUCUUCGGAUGCAGAGGCGGCAGCCUUCGGUGGCGCGAUCGCGCCAACGUUCUCAACUAUGACACGCAAAACGCGUGCUCCGUUGAAUGGACUUUAUAUUG: the “polymerase ribozyme fitness (log ratio)” value was no more than -4.2. The value for GGAUCUUCUCGAUCUAACAAAAAAGGCUAAUCUGCCACAAAGCUUGAGAGCAUCUUCGGAUGCAGAGGCGGCAGCCUUCGGUGGCGCGAUAGCGCCAACGUUCUCAAGUAUGACACGCAAAACGCGUGCUCCGUUGAAUGGAGUUUAUCAUG was no more than -4.2; that for GGAUCUUCUCGAUCUAACAAAAAAGCCAAAUCUGCCACAAAGCUUGAGAGCAUCUACGGAUGCAGAGGCGGCAGCCUUCGGUGGCGCUAUAGCGCCAACGUUCUCAACUAUGACACGCUACGCGCGUGCUCCGUUGAAUUGAGUUUAUCAUG was no more than -4.2. Take GGAUCUUCUCGAUCUAACAAAAAAGCCAAAUCUGCCACAAAGCUUGAGAGCAUCUUCGGAUGCAGAGGCGGCAGCCUUCGGAGGCGCGAUAGCGCCAACGUUCUCAACUAUGACACGCAAAACGCGUGCUCCGUUGGAUGGAGUUUAUCAUG: the “polymerase ribozyme fitness (log ratio)” value is -2.93. Under GGAUCUUCUCGAUCUAACAAAAAAGCCAAAUCUGCCACAAAGCUUGAGAGCAUCUUCGGAUGCAGAGGCGGCAGCCUUCGAUGGCGUCAUAGCGCCAACGUUCUCAACUAUGACACGCAAAACCCGUGCUCCGUUUAAUCGAGUUUAUCAUG stands no more than -4.2; under GGAUCUUCUCGAUCUAACAAAAAAGCCAAAUCUGCCACAAAGCUUGAGAGCAUCUUCGGAUGCAGAGGCGGCAGCCUUCGGUGGCUCGAUAGCGCCAACGUUCUCAACUUUGACACGCAAAACGCGUGCUCCGUUGAAUGGAGUAUAUCAUG, no more than -4.2; under GGAUCUUCUCGAUCUAACAAAAAAGGCAAAUCUGCCACAAAGCUUGAGAGCAUCUUCGGAUGCAGAGGCGGCAGCCUUCGGUGGCGCGAUAGCGCCAACGUUCUCAACUAUGACACGCAAAACGCGUGCUCCGUUGAAUGGAGUUUAUCAUG, -2.11.

GGAUCUUCUCGAUCUAACAAAAAAGGCAUAUCUGCCACAAAGCUUGAGAGCAUCUUCUGAAGCAGAGGCGGCAGCUUUCGGUGGCGCGAUGGCGCCAACGUUCUCAACUAUGACACGCAUAACGCGUGCUCCGUUGAAUGGAGUUUAUCAUG: the “polymerase ribozyme fitness (log ratio)” value was no more than -4.2. The value for GGAUCUUCUCGAUCUAACAAAAAAGGCAAAUCUGCCACUAAGCUUGAGAGCAUCUUCGGAUGCAGAGGCGGUAGCCUUCGGUGGCGGGAUAGCGCCAACGUUUUCAACUAUGACACGCAAAACGCGUGCUCCGUUGAAUGGAGUUUAUCAUG was no more than -4.2. For GGAUCUUCUCGAUCUAACAAAAAAGGCGAAUCUGCCACAAAGCUUGAGAGCAUCUUCGGAUGCAGAGGCGGCAGCCUUCGGUGGCGAGAUAGCGCCAACGUUCUGAAUUAUGACACGCAAAACGAGUGCUCCGUUGAAUGGAGUUUAUCAUG, the “polymerase ribozyme fitness (log ratio)” value was no more than -4.2.
